Where two headings read alike, the source gives them in different places.
Tests used:
CHIKV-nLuc [1] = assay: microbe, parasite or virus in culture; type: cell-based; settings: 96-well, vendor-sourced compound, read-out: Antiviral potency (EC50 [µM]) CHIKV (Vero)
CHIKV-nLuc [2] = assay: microbe, parasite or virus in culture; settings: Chikungunya virus, U2OS, read-out: Antiviral potency (EC50 [µM]) CHIKV (U-2 OS)
CHIKV-nLuc [3] = settings: read-out: Antiviral potency (EC50 [µM]) CHIKV (U-2 OS)

Molecule | EC50 (CHIKV-nLuc [1]; Chikungunya virus, Vero) | EC50 (CHIKV-nLuc [2]) | EC50 (CHIKV-nLuc [1]) | EC50 (CHIKV-nLuc [3])
O=C(CN1C(=O)CNC1=O)NCc1n[nH]c2c1CCCCC2 [GAP-1173149, 2-(2,5-dioxoimidazolidin-1-yl)-N-(1,4,5,6,7,8-hexahydrocyclohepta[d]pyrazol-3-ylmethyl)acetamide] | 18.6 µM | 15.6 µM |  | 
Cn1nc(CN(C(=O)c2ccc(F)cc2)c2ccccc2)c2c1CCN(S(=O)(=O)Cc1ccccc1F)C2 [GAP-1081237] | 10.5 µM | 9.1 µM |  | 
CC(C)(C)c1ccc(C(=O)On2c(-c3ccccc3F)nc3ccccc3c2=O)cc1 [GAP-1000864] | > 10 µM | ~10 µM |  | 
CCNc1cc(C)nc(N2CCN(C(=O)c3cccc4ccccc34)CC2)n1 [GAP-1066658] | 3.2 µM | 3.1 µM |  | 
O=C(CSc1c2c(nc3cc(Cl)ccc13)CCCC2)Nc1ccc2c(c1)OCCO2 [GAP-1022901] | 3.76 µM | > 10 µM |  | 
CCN1CCc2nc3sc(C(=O)c4ccccc4)c(C)c3cc2C1 [GAP-1022776] | 7.7 µM | 9.1 µM |  | 
CCS(=O)(=O)c1ncc(Cl)c(C(=O)Nc2nnc(C(C)C)s2)n1 [GAP-1027282] | > 10 µM | 1.9 µM |  | 
Cc1ccc(NC(=O)c2oc3ccccc3c2NC(=O)c2nc(S(C)(=O)=O)ncc2Cl)cc1 [GAP-1027276] | ~10 µM | ~10 µM |  | 
Cc1ccc2sc(N(CCCN(C)C)C(=O)c3nc4ccccc4s3)nc2c1C [GAP-1041908] | 22.2 µM | 13.3 µM |  | 
N-[2-(4-fluorophenyl)ethyl]-1,5-dimethyl-N-[(2-methylpyrazol-3-yl)methyl]pyrazole-4-sulfonamide [GAP-1146924] |  |  | 19 µM | 24.1 µM

From article PMC13288994, “Identification and characterization of novel chikungunya virus polymerase inhibitors” (Journal of Virology, 2026)
